Data taken from the RNAGym collection of RNA variant scans (doi:10.7554/elife.90254).
Read counts are not given, so values of variants with three or more changes are uncertain.

B1: LINE1-mini (parent)
chain: GGCAGAGCUCAACACAGCGUGGCAAAGUGGCUGUGGCUAGACUGCC

Variants of: B1
Assay: self-cleavage, relative activity (ratio to wild type); higher = more cleavage; in vitro, sequencing; the parent is a self-cleaving ribozyme

Row | Variant | self-cleavage
1 | GGCAGAGCUCAACACAGCGUGGCAAAGUAGCUGAAGCUAGACUGCC [G29A U34A G35A] | 0.17
2 | GGCAGAGCUCAACACAGCGUGGCAAAGUAGCUGCGGCUAGACUACC [G29A U34C G44A] | 0.09
3 | GGCAGAGCUCAACACAGCGUGGCAAAGUAGCUGUGGCGAGACUGGA [G29A U38G C45G C46A] | 0.01
4 | GGCAGAGCUCAACACAGCGUGGCAAAGUAGCUGUGGCUAGACGGCA [G29A U43G C46A] | 0.06
5 | GGCAGAGCUCAACACAGCGUGGCAAAGUCGCUGUGGCUCGACUGCA [G29C A39C C46A] | 0.01
6 | GGCAGAGCUCAACACAGCGUGGCAAAGUCGCUGUGGCUAGUAUGCC [G29C A41U C42A] | 0
7 | GGCAGAGCUCAACACAGCGUGGCAAAGUCGCUGUGGCUAGUCUCCA [G29C A41U G44C C46A] | 0.17
8 | GGCAGAGCUCAACACAGCGUGGCAAAGUCGAUGUGACUAGACUGCG [G29C C31A G36A C46G] | 0.13
9 | GGCAGAGCUCAACACAGCGUGGCAAAGUCGGUGUGUCUAGACUGAC [G29C C31G G36U C45A] | 0.03
10 | GGCAGAGCUCAACACAGCGUGGCAAAGUCGUUGUGGCUAGACUGCA [G29C C31U C46A] | 0.33
11 | GGCAGAGCUCAACACAGCGUGGCAAAGUCGUUGCGGCUAGACUGUC [G29C C31U U34C C45U] | 0.05
12 | GGCAGAGCUCAACACAGCGUGGCAAAGUCGCUGUGGAUAGACUGUU [G29C C37A C45U C46U] | 0.07
13 | GGCAGAGCUCAACACAGCGUGGCAAAGUCGCUGUGGAUAGACAGCC [G29C C37A U43A] | 0.01
14 | GGCAGAGCUCAACACAGCGUGGCAAAGUCGCUGUGGUUUGACUGGC [G29C C37U A39U C45G] | 0.04
15 | GGCAGAGCUCAACACAGCGUGGCAAAGUCAUUGUGGCUAGACUGCC [G29C G30A C31U] | 0.11
16 | GGCAGAGCUCAACACAGCGUGGCAAAGUCACUUUGGCUAGACUGCC [G29C G30A G33U] | 0.17
17 | GGCAGAGCUCAACACAGCGUGGCAAAGUCUCUGUGGUUAGACCGCC [G29C G30U C37U U43C] | 0.04
18 | GGCAGAGCUCAACACAGCGUGGCAAAGUCUCUGUGUCUAGAAUGCC [G29C G30U G36U C42A] | 0.03
19 | GGCAGAGCUCAACACAGCGUGGCAAAGUCUCAGUGGGUAGACUGCC [G29C G30U U32A C37G] | 0.05

Row | Variant | self-cleavage
20 | GGCAGAGCUCAACACAGCGUGGCAAAGUCGCUUUGGCUAGACUUCC [G29C G33U G44U] | 0.02
21 | GGCAGAGCUCAACACAGCGUGGCAAAGUCGCUUAGGCUAGACUGCC [G29C G33U U34A] | 0.11
22 | GGCAGAGCUCAACACAGCGUGGCAAAGUCGCUGUAUCUACACUGCC [G29C G35A G36U G40C] | 0.05
23 | GGCAGAGCUCAACACAGCGUGGCAAAGUCGCUGUGGCUAAAAUGCC [G29C G40A C42A] | 0.01
24 | GGCAGAGCUCAACACAGCGUGGCAAAGUCGCUGUGGCUAAAGUCCC [G29C G40A C42G G44C] | 0.02
25 | GGCAGAGCUCAACACAGCGUGGCAAAGUCGCAGUGGAUAGACUGCC [G29C U32A C37A] | 0.03
26 | GGCAGAGCUCAACACAGCGUGGCAAAGUCGCAGUGGCUAGACUGCG [G29C U32A C46G] | 0.1
27 | GGCAGAGCUCAACACAGCGUGGCAAAGUCGCCGGCGCUAGACUGCC [G29C U32C U34G G35C] | 0.06
28 | GGCAGAGCUCAACACAGCGUGGCAAAGUCGCGGUGUCUGGACUGCC [G29C U32G G36U A39G] | 0
29 | GGCAGAGCUCAACACAGCGUGGCAAAGUCGCUGAGGCGAGACUGAG [G29C U34A U38G C45A C46G] | 0.01
30 | GGCAGAGCUCAACACAGCGUGGCAAAGUCGCUGUGGCGAGCUUGCC [G29C U38G A41C C42U] | 0
31 | GGCAGAGCUCAACACAGCGUGGCAAAGUUGCUGUGGCUCGACUGUC [G29U A39C C45U] | 0.05
32 | GGCAGAGCUCAACACAGCGUGGCAAAGUUGCUGUGGCUGGACUGAC [G29U A39G C45A] | 0.1
33 | GGCAGAGCUCAACACAGCGUGGCAAAGUUGCUGUGGCUGGACUCCC [G29U A39G G44C] | 0.17
34 | GGCAGAGCUCAACACAGCGUGGCAAAGUUGCUGUGGCUUGACUGCU [G29U A39U C46U] | 1.26
35 | GGCAGAGCUCAACACAGCGUGGCAAAGUUGCUGUGGCUAGCCUGUC [G29U A41C C45U] | 0.01
36 | GGCAGAGCUCAACACAGCGUGGCAAAGUUGCUGUGGCUAGGGUGCC [G29U A41G C42G] | 0.02
37 | GGCAGAGCUCAACACAGCGUGGCAAAGUUGAGGUGGCUAGACUUCC [G29U C31A U32G G44U] | 0.12
38 | GGCAGAGCUCAACACAGCGUGGCAAAGUUGAUGGGGCUAUACUGCC [G29U C31A U34G G40U] | 0

Row | Variant | self-cleavage
39 | GGCAGAGCUCAACACAGCGUGGCAAAGUUGGUGUGGCUGUACUGCC [G29U C31G A39G G40U] | 0.04
40 | GGCAGAGCUCAACACAGCGUGGCAAAGUUGGUGUGGAUAGACUGCC [G29U C31G C37A] | 0.21
41 | GGCAGAGCUCAACACAGCGUGGCAAAGUUGGUGUGGCUAGACUGCA [G29U C31G C46A] | 0.15
42 | GGCAGAGCUCAACACAGCGUGGCAAAGUUGUUGUGGCUGGACUGCC [G29U C31U A39G] | 0.02
43 | GGCAGAGCUCAACACAGCGUGGCAAAGUUGCUGUGGAUCGACUGCC [G29U C37A A39C] | 0.05
44 | GGCAGAGCUCAACACAGCGUGGCAAAGUUGCUGUGGGUAGACUGAC [G29U C37G C45A] | 0.01
45 | GGCAGAGCUCAACACAGCGUGGCAAAGUUGCUGUGGGGAGACUGCC [G29U C37G U38G] | 0
46 | GGCAGAGCUCAACACAGCGUGGCAAAGUUGCUGUGGCUAGAGUGAC [G29U C42G C45A] | 0.06
47 | GGCAGAGCUCAACACAGCGUGGCAAAGUUGCUGUGGCUAGACUGAU [G29U C45A C46U] | 0.55
48 | GGCAGAGCUCAACACAGCGUGGCAAAGUUACUGUGGCUAGACUGUC [G29U G30A C45U] | 1.59
49 | GGCAGAGCUCAACACAGCGUGGCAAAGUUACUGUGGCUAGACUUCC [G29U G30A G44U] | 0.08
50 | GGCAGAGCUCAACACAGCGUGGCAAAGUUACUGUGGCUAGACCGCC [G29U G30A U43C] | 0.21
51 | GGCAGAGCUCAACACAGCGUGGCAAAGUUCCUGUGGCUGGACUGAC [G29U G30C A39G C45A] | 0.01
52 | GGCAGAGCUCAACACAGCGUGGCAAAGUUUCUGUCGGUAGACUGCC [G29U G30U G35C C37G] | 0.05
53 | GGCAGAGCUCAACACAGCGUGGCAAAGUUGCUUUGGCUAGAGUCCU [G29U G33U C42G G44C C46U] | 0.01
54 | GGCAGAGCUCAACACAGCGUGGCAAAGUUGCUUUGGCAAGACUGCC [G29U G33U U38A] | 0.53
55 | GGCAGAGCUCAACACAGCGUGGCAAAGUUGCUGUAGCUAGUCUGCC [G29U G35A A41U] | 0.11
56 | GGCAGAGCUCAACACAGCGUGGCAAAGUUGCUGUAGCUAGACUGCU [G29U G35A C46U] | 0.1
